Where a name gives a salt, the structure may show the parent alone. ± gives the standard deviation of the averaged measurements. The full ranking holds about 3,200 compounds; the median of “nuclei count (viability) relative to DMSO” is about 99, and the lowest 2% start at about 16. Some of the results follow.

The test system of this assay is U2OS. As to the kind of experiment: nuclei count (viability) relative to DMSO (% of DMSO); higher = more viable cells. Particulars: 10 µM; 24 h. As for the experimental part:
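Primary image-based screen in U2OS cells: compounds at 10 uM for 24 h, then a 1 h o-propargyl-puromycin (OPP) pulse, click labelling, and high-throughput microscopy. Mean cytoplasmic OPP intensity and nuclei count were normalised to DMSO wells within each plate (DMSO = 100) and averaged over triplicate plates.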
`Nc1ccc(-c2ccc3ncc4ccc(=O)n(-c5cccc(C(F)(F)F)c5)c4c3c2)cn1` [Torin 2]: the nuclei count came out at 27.7 ± 1.8.

Consider `Cc1nc2ccccn2c(=O)c1CCN1CCC(C(=O)c2ccc(F)cc2)CC1` [Pirenperone], for which the nuclei count is 118.

`COc1cccc2c1C(=O)c1c(O)c3c(c(O)c1C2=O)C[C@@](O)(C(=O)CO)C[C@@H]3O[C@H]1C[C@H](N)[C@@H](O)[C@H](C)O1` [Epirubicin HCl] registered a nuclei count of 13.2. Turning to `CCCN(CCC)CCc1cccc2c1CC(=O)N2` [Ropinirole HCl], the nuclei count was determined as 106. Compound `CC(=O)O[C@H]1C(=O)[C@@]2(C)[C@H]([C@H](OC(=O)c3ccccc3)[C@]3(O)C[C@H](OC(=O)[C@H](O)[C@@H](NC(=O)c4ccccc4)c4ccccc4)C(C)=C1C3(C)C)[C@]1(OC(C)=O)CO[C@@H]1C[C@@H]2O` [Paclitaxel] showed a nuclei count of 41.5. With `CC(=O)O[C@H]1C(=O)[C@@]2(C)[C@H]([C@H](OC(=O)c3ccccc3)[C@]3(O)C[C@H](OC(=O)[C@H](O)[C@@H](NC(=O)c4ccccc4)c4ccccc4)C(C)=C1C3(C)C)[C@]1(OC(C)=O)CO[C@@H]1C[C@@H]2O` [Paclitaxel (Taxol)], the nuclei count amounted to 42.1. The compound `CC(=O)O[C@H]1C(=O)[C@@]2(C)[C@H]([C@H](OC(=O)c3ccccc3)[C@]3(O)C[C@H](OC(=O)[C@H](O)[C@@H](NC(=O)c4ccccc4)c4ccccc4)C(C)=C1C3(C)C)[C@]1(OC(C)=O)CO[C@@H]1C[C@@H]2O` [Taxol] returned a nuclei count of 40.6. The value for `NC(=O)c1cccc(-c2cccc(OC(=O)NC3CCCCC3)c2)c1` was 103; that for `NCCCCCc1c[nH]cn1` [Impentamine dihydrobromide] was 90.5. Next, `NC(=O)c1cnc(N[C@@H]2CCCC[C@@H]2N)nc1Nc1cccc(-n2nccn2)c1`: 54.8 ± 4.5. The value for `NS(=O)(=O)c1cc2c(cc1Cl)NC(C(Cl)Cl)NS2(=O)=O` (configuration not stated) [Trichlormethiazide] was 101; that for `CN[C@@H]1[C@H](O)[C@H](NC)[C@H]2O[C@@]3(O)C(=O)C[C@@H](C)O[C@H]3O[C@@H]2[C@H]1O` [Spectinomycin dihydrochloride] was 109; that for `N#Cc1ccc(C2CCCc3cncn32)cc1` (configuration not stated) [Fadrozole hydrochloride] was 107. For `COC(=O)C1=CO[C@@H](O[C@@H]2O[C@H](CO)[C@@H](O)[C@H](O)[C@H]2O)[C@@H]2C(CO)=CC[C@H]12` [Geniposide], the nuclei count is 103.

The compound `Cc1onc(-c2ccccc2Cl)c1C(=O)N[C@@H]1C(=O)N2[C@@H]1SC(C)(C)[C@@H]2C(=O)O` [Cloxacillin sodium salt] yielded a nuclei count of 108. `Cc1onc(-c2ccccc2Cl)c1C(=O)N[C@@H]1C(=O)N2[C@@H]1SC(C)(C)[C@@H]2C(=O)O` [Cloxacillin sodium (Cloxacap)] gave a nuclei count of 110. The compound `N[C@@H](C(=O)N[C@@H]1C(=O)N2C(C(=O)O)=C(Cl)CC[C@H]12)c1ccccc1` [Loracarbef] registered a nuclei count of 105. `COc1ccc(Cn2ccc3ccc(C(=O)NO)cc32)cc1` came in with a nuclei count of 101. Next, `C#Cc1cccc(Nc2ncnc3cc(OCCOC)c(OCCOC)cc23)c1` [Erlotinib]: 90.5. For `CN[C@@H]1[C@@H](O[C@H]2O[C@H](CO)[C@@H](N)[C@H](O)[C@H]2O)OC2C[C@@H](N)[C@@H](O[C@H]3[C@H](O)[C@@H](O)[C@H](N)C[C@@H]3N)OC2[C@@H]1O` (some centres not stated) [Apramycin], the nuclei count is 109. As for `CC1(C)O[C@H]2CC(=O)OC[C@]23[C@H]2CC[C@@]4(C)[C@H](c5ccoc5)OC(=O)[C@H]5O[C@]54[C@]2(C)C(=O)C[C@@H]13` [Limonin], the nuclei count stood at 95.5.

For `CCCCCCOC(=O)NC(=N)c1ccc(NCc2nc3cc(C(=O)N(CCC(=O)OCC)c4ccccn4)ccc3n2C)cc1` [BIBR-1048 (Dabigatran etexilate, Pradaxa)], the nuclei count was determined as 98.1. `CC(C)C[C@@H](C(=O)N[C@H](C(=O)OC1CCCC1)c1ccccc1)[C@H](O)C(=O)NO` registered a nuclei count of 78.4.

In turn, `CC(C)C[C@@H](C(=O)N[C@H](C(=O)OC1CCCC1)c1ccccc1)[C@H](O)C(=O)NO` [Tosedostat (CHR2797)] returned a nuclei count of 92.8. With `COc1ccc(O)cc1` [Mequinol], the nuclei count is 96. Take `CCCCCCCCCCCCCCCCCCCCCCO` [Docosanol (Abreva)]: the nuclei count is 106. With `O=[N+]([O-])c1ccc(Oc2ccc(Br)cc2)c(C(O)P(=O)(O)O)c1` (configuration not stated), the nuclei count was found to be 106. `Cc1c(-c2ccccc2)oc2c(C(=O)OCCN3CCCCC3)cccc2c1=O` [Flavoxate hydrochloride] displayed a nuclei count of 118. `Cn1cnc2c1c(=O)[nH]c(=O)n2C` [Theobromine] came in with a nuclei count of 106.

In turn, `CC1=NN(c2ccccc2)C(=O)C1` showed a nuclei count of 99.1 ± 8.2. As for `CCN(CC)CCNC(=O)c1cc(Cl)c(N)cc1OC` [Metoclopramide monohydrochloride], the nuclei count turned out to be 103. Regarding `CCOc1ccc2ccccc2c1C(=O)N[C@@H]1C(=O)N2[C@@H]1SC(C)(C)[C@@H]2C(=O)O` [Nafcillin sodium salt monohydrate], the nuclei count turned out to be 112.

The compound `CN(C)C/C=C(/c1ccc(Br)cc1)c1cccnc1` [Zimelidine dihydrochloride] displayed a nuclei count of 104. The value for `CN(C)C/C=C(/c1ccc(Br)cc1)c1cccnc1` [Zimelidine dihydrochloride monohydrate] was 105; that for `CC(C)(CO)C(O)C(=O)NCCCO` (configuration not stated) [Panthenol (D)] was 105; that for `CCN(CC)CCOC(=O)c1cc(Cl)c(N)cc1OC` [SDZ 205-557 hydrochloride] was 104.

The compound `C=C1/C(=C\C=C2/CCC[C@]3(C)[C@@H]([C@H](C)CCCC(C)C)CC[C@@H]23)C[C@@H](O)C[C@@H]1O` [Alfacalcidol] came in with a nuclei count of 97.2.

In turn, `Cc1ccc2c(c1)c1c3n2CCNC3CCC1` (configuration not stated) [Pirlindole mesylate] yielded a nuclei count of 106 ± 1.8. `CC(=O)N[C@@H](Cc1c[nH]c2ccccc12)C(=O)OCc1cc(C(F)(F)F)cc(C(F)(F)F)c1` returned a nuclei count of 114. On to `CO[C@H]1/C=C\C=C(/C)C(=O)NC2=CC(=O)C(NCCN(C)C)=C(C[C@@H](C)C[C@H](OC)[C@H](O)[C@@H](C)/C=C(\C)[C@@H]1OC(N)=O)C2=O` [17-DMAG HCl (Alvespimycin)], for which the nuclei count is 35.6. In the case of `CCC[C@@H]1C[C@@H](C(=O)N[C@@H]([C@H]2O[C@H](SC)[C@H](O)[C@@H](O)[C@H]2O)[C@H](C)Cl)N(C)C1` [Clindamycin HCl (Dalacin)], the nuclei count amounted to 97.5.

For the compound `CCC[C@@H]1C[C@@H](C(=O)N[C@@H]([C@H]2O[C@H](SC)[C@H](O)[C@@H](O)[C@H]2O)[C@H](C)Cl)N(C)C1` [Clindamycin hydrochloride], the nuclei count was found to be 104.

The record behind these values is the supplement of paper PMC8183993.
